Among the data in the GPR68 mutational scans of Howard et al. (2025) are cAMP reporter score and surface expression score values, retold here.

B1: GPR68, Q15743 (parent)
chain: MGNITADNSSMSCTIDHTIHQTLAPVVYVTVLVVGFPANCLSLYFGYLQIKARNELGVYLCNLTVADLFYICSLPFWLQYVLQHDNWSHGDLSCQVCGILLYENIYISVGFLCCISVDRYLAVAHPFRFHQFRTLKAAVGVSVVIWAKELLTSIYFLMHEEVIEDENQHRVCFEHYPIQAWQRAINYYRFLVGFLFPICLLLASYQGILRAVRRSHGTQKSRKDQIQRLVLSTVVIFLACFLPYHVLLLVRSVWEASCDFAKGVFNAYHFSLLLTSFNCVADPVLYCFVSETTHRDLARLRGACLAFLTCSRTGRAREAYPLGAPEASGKSGAQGEEPELLTKLHPAFQTPNSPGSGGFPTGRLA

The least precise scores are not listed. The source holds two more conditions with little spread; they are left out. In variant names, del marks residues removed and ins residues inserted between the two positions. For part of these data: The concentration of ogerin is not given here.

The variants in series [1] derive from B1. The experiment in a line: cAMP reporter score (Enrich2 score, wild type = 0); higher = more signal; HEK293T, FACS bins.
Series [2] covers variants of B1. The experiment in a line: surface expression score (Enrich2 score, wild type = 0); higher = more signal; HEK293T, FACS bins.

As to W181_Q182insGS, the cAMP reporter score in series [1] (pH 5.5) was -0.833; in series [1] (pH 6), -0.975; in series [1] (pH 6, modulator: ogerin), -1.05; in series [1] (pH 6.5, modulator: ogerin), -0.884. Moreover, in series [2], the surface expression score is -1.49.

For F190_L191insGS, the cAMP reporter score in series [1] (pH 5.5) was -1.6; in series [1] (pH 6) it was -0.655; in series [1] (pH 6, modulator: ogerin) it was -1.93; in series [1] (pH 6.5, modulator: ogerin), -1.5. Besides, the surface expression score in series [2] is -2.38.

Turning to A184_I185insGSG, the cAMP reporter score was -0.356 in series [1] (pH 5.5); -0.988 in series [1] (pH 6); -2.27 in series [1] (pH 6, modulator: ogerin); -1.36 in series [1] (pH 6.5, modulator: ogerin). For the same variant, the surface expression score in series [2] was -1.63.

Regarding F190_L191del, the cAMP reporter score is -1.87 in series [1] (pH 5.5); -1.03 in series [1] (pH 6); -2.47 in series [1] (pH 6, modulator: ogerin); -1.58 in series [1] (pH 6.5, modulator: ogerin). Moreover, the surface expression score in series [2] is -2.02.

Regarding R170_C172del, the cAMP reporter score in series [1] (pH 5.5) was -1.91; in series [1] (pH 6), -0.6; in series [1] (pH 6, modulator: ogerin), -1.25; in series [1] (pH 6.5, modulator: ogerin), -1.71. Also, the surface expression score in series [2] was -2.4.

In the case of H169A, the cAMP reporter score is -0.909 in series [1] (pH 5.5); -0.82 in series [1] (pH 6, modulator: ogerin); -0.608 in series [1] (pH 6.5, modulator: ogerin). Further, the surface expression score in series [2] is -0.086.

As to H169I, the cAMP reporter score in series [1] (pH 5.5) is -1.78; in series [1] (pH 6), -1.64; in series [1] (pH 6, modulator: ogerin), -2.75; in series [1] (pH 6.5, modulator: ogerin) it was -1.77. In addition, the surface expression score in series [2] was -0.563.

Regarding H169L, the cAMP reporter score is -1.11 in series [1] (pH 5.5); -1 in series [1] (pH 6); -1.21 in series [1] (pH 6, modulator: ogerin); -1.12 in series [1] (pH 6.5, modulator: ogerin). Besides, the surface expression score in series [2] is 0.251.

Turning to H169T, the cAMP reporter score is -0.422 in series [1] (pH 5.5); -0.837 in series [1] (pH 6); 0.41 in series [1] (pH 6, modulator: ogerin); -0.738 in series [1] (pH 6.5, modulator: ogerin). The surface expression score in series [2] is 1.64.

Consider H169R, for which the cAMP reporter score is -0.204 in series [1] (pH 5.5); -0.302 in series [1] (pH 6); -0.332 in series [1] (pH 6, modulator: ogerin); -0.404 in series [1] (pH 6.5, modulator: ogerin). For the same variant, the surface expression score in series [2] was 0.201.

As for H169M, the cAMP reporter score in series [1] (pH 5.5) is 0.508; in series [1] (pH 6) it was -0.668; in series [1] (pH 6, modulator: ogerin) it was -0.411; in series [1] (pH 6.5, modulator: ogerin), -0.428. The surface expression score in series [2] was 0.937.

H169D: the cAMP reporter score in series [1] (pH 5.5) was -0.482; in series [1] (pH 6), -0.82; in series [1] (pH 6, modulator: ogerin) it was -1.06; in series [1] (pH 6.5, modulator: ogerin), -1.27. In addition, the surface expression score in series [2] is -0.186.

In the case of H169N, the cAMP reporter score is -1.23 in series [1] (pH 5.5); -0.812 in series [1] (pH 6); -1.56 in series [1] (pH 6, modulator: ogerin); -1.59 in series [1] (pH 6.5, modulator: ogerin). Further, the surface expression score in series [2] was -0.614.

On to H169K, for which the cAMP reporter score in series [1] (pH 5.5) is 0.058; in series [1] (pH 6) it was -0.717; in series [1] (pH 6, modulator: ogerin), 0.027; in series [1] (pH 6.5, modulator: ogerin), -0.35. The surface expression score in series [2] is 1.53.

Turning to H169Y, the cAMP reporter score was -0.824 in series [1] (pH 5.5); -0.216 in series [1] (pH 6); -1.04 in series [1] (pH 6, modulator: ogerin); -0.688 in series [1] (pH 6.5, modulator: ogerin). Further, in series [2], the surface expression score is 0.368.

For H169W, the cAMP reporter score is -0.998 in series [1] (pH 5.5); -0.497 in series [1] (pH 6); -1.59 in series [1] (pH 6, modulator: ogerin); -1.32 in series [1] (pH 6.5, modulator: ogerin). Moreover, in series [2], the surface expression score is 0.066.

For the variant H169V, the cAMP reporter score in series [1] (pH 5.5) was -0.498; in series [1] (pH 6, modulator: ogerin), -1.03; in series [1] (pH 6.5, modulator: ogerin) it was -1.41. Further, in series [2], the surface expression score worked out at 0.801.

As for H169G, the cAMP reporter score is -1.28 in series [1] (pH 5.5); -0.409 in series [1] (pH 6); -0.87 in series [1] (pH 6, modulator: ogerin); -1.3 in series [1] (pH 6.5, modulator: ogerin). For the same variant, the surface expression score in series [2] was found to be 0.376.

H169E: the cAMP reporter score in series [1] (pH 5.5) is 0.968; in series [1] (pH 6), -1.85; in series [1] (pH 6, modulator: ogerin) it was -0.432; in series [1] (pH 6.5, modulator: ogerin) it was -0.345. Besides, the surface expression score in series [2] is 1.26.

Turning to H169P, the cAMP reporter score in series [1] (pH 5.5) is -0.674; in series [1] (pH 6), -0.652; in series [1] (pH 6, modulator: ogerin), -1.03; in series [1] (pH 6.5, modulator: ogerin), -1.15. The surface expression score in series [2] came to 1.62.

For the variant H169Q, the cAMP reporter score in series [1] (pH 5.5) was -0.116; in series [1] (pH 6), -0.475; in series [1] (pH 6, modulator: ogerin), -0.56; in series [1] (pH 6.5, modulator: ogerin), -0.422. Besides, the surface expression score in series [2] is -0.85.

As to H169F, the cAMP reporter score is -0.22 in series [1] (pH 5.5); -0.149 in series [1] (pH 6); -1.02 in series [1] (pH 6, modulator: ogerin); -0.62 in series [1] (pH 6.5, modulator: ogerin). For the same variant, the surface expression score in series [2] was 0.656.

Take H169S: the cAMP reporter score in series [1] (pH 5.5) was -0.692; in series [1] (pH 6), -1.02; in series [1] (pH 6, modulator: ogerin), -1.42; in series [1] (pH 6.5, modulator: ogerin), -0.78. Further, the surface expression score in series [2] was 0.84.

Regarding Y176_P177insGS, the cAMP reporter score in series [1] (pH 5.5) was -1.74; in series [1] (pH 6), -1.23; in series [1] (pH 6, modulator: ogerin), -1.19; in series [1] (pH 6.5, modulator: ogerin) it was -2.11. Moreover, the surface expression score in series [2] is -1.76.

With Q182_R183del, the cAMP reporter score in series [1] (pH 5.5) is -1.11; in series [1] (pH 6) it was -1.67; in series [1] (pH 6, modulator: ogerin) it was -1.8; in series [1] (pH 6.5, modulator: ogerin), -1.05. In addition, the surface expression score in series [2] was -2.44.

Take V192_F194del: the cAMP reporter score was -0.244 in series [1] (pH 5.5); -1.46 in series [1] (pH 6, modulator: ogerin); -2.08 in series [1] (pH 6.5, modulator: ogerin). For the same variant, the surface expression score in series [2] was -1.96.

As for T152_S153insG, the cAMP reporter score in series [1] (pH 5.5) is -1.54; in series [1] (pH 6), -1.1; in series [1] (pH 6, modulator: ogerin), -1.06; in series [1] (pH 6.5, modulator: ogerin), -1.61. Besides, the surface expression score in series [2] was -0.123.

With Q179_A180insGSG, the cAMP reporter score is -1.39 in series [1] (pH 5.5); -0.772 in series [1] (pH 6); -1.16 in series [1] (pH 6, modulator: ogerin).

Turning to N186_Y187insGSG, the cAMP reporter score in series [1] (pH 5.5) was -1.9; in series [1] (pH 6), -1.65; in series [1] (pH 6, modulator: ogerin) it was -1.74; in series [1] (pH 6.5, modulator: ogerin), -1.61. The surface expression score in series [2] was -1.2.

Turning to N167_Q168insG, the cAMP reporter score in series [1] (pH 5.5) was -0.648; in series [1] (pH 6), 0.1; in series [1] (pH 6, modulator: ogerin) it was -1.2; in series [1] (pH 6.5, modulator: ogerin) it was -0.512. In addition, the surface expression score in series [2] was 0.345.

Turning to M158_H159insG, the cAMP reporter score is -0.591 in series [1] (pH 5.5); -0.834 in series [1] (pH 6); -1.52 in series [1] (pH 6, modulator: ogerin); -1.57 in series [1] (pH 6.5, modulator: ogerin). For the same variant, the surface expression score in series [2] was -0.158.
